Results on 15 compounds are retold here after the supplement of paper PMC9446081.

The structures appear in SMILES notation. Among all 39,000 compounds or so, about 220 (0.56%) showed activity. The list shows a part of the results.
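Also: static incubation at 37 °C against the wild-type strain, values averaged over two biological replicates.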

The subject of the experiment is Escherichia coli K-12 BW25113. Put plainly: relative growth (OD600 normalised to plate interquartile mean) (fraction); higher = less growth inhibition, active = 0.2 or less. As to conditions: 50 µM; LB; incubation time: overnight (16-24 h).
In the case of `NC(=O)N1C(=O)[C@H]2[C@H](C1=O)[C@H]1C=C(CCCO)[C@@H]2[C@@H](C2CC2)N1Cc1cc2c(cc1Br)OCO2`, the relative growth is inactive: 1.02.

For `COc1cccc(S(=O)(=O)Nc2ccc3c(c2)C(=O)N(C)C[C@@H](OC)[C@H](C)CN(C(=O)Cc2cccnc2)[C@H](C)CO3)c1`, the relative growth is inactive: 0.975.

In the case of `Cc1ccc(S(=O)(=O)N(C)C[C@H]2OCCCC[C@@H](C)Oc3ccc(NC(=O)NC4CCCCC4)cc3C(=O)N([C@H](C)CO)C[C@H]2C)cc1`, the relative growth was inactive: 1.04.

With `COc1ccccc1C#Cc1cnc2c(c1)C(=O)N([C@@H](C)CO)C[C@@H](C)[C@H](CN(C)C(=O)CC1CC1)O2`, the relative growth is inactive: 1.02.

With `Cc1noc(C)c1NC(=O)Nc1ccc2c(c1)C(=O)N([C@@H](C)CO)C[C@H](C)[C@H](CN(C)Cc1ccc(C(F)(F)F)cc1)OCCCC[C@H](C)O2`, the relative growth is inactive: 1.02.

In the case of `C[C@H]1CN([C@@H](C)CO)C(=O)c2cc(-c3ccncc3)cnc2O[C@@H]1CN(C)S(=O)(=O)c1ccccc1`, the relative growth was inactive: 1.03.

For `C=CCNC(=O)[C@H]1[C@@H]2C(=O)O[C@@H](c3ccccc3)[C@@H](c3ccccc3)N2[C@@H](c2ccc(O)cc2)[C@]12C(=O)Nc1ccc(C#Cc3ccc(OC)cc3)cc12`, the relative growth was inactive: 1.04.

Consider `CN1CCN(C(=O)C[C@H]2CC[C@@H]3[C@H](COc4ccc(NC(=O)C5CCCCC5)cc4C(=O)N3C)O2)CC1`, for which the relative growth is inactive: 1.

`C[C@@H]1CCCCO[C@H](CN(C)C(=O)Nc2ccc(C(F)(F)F)cc2)[C@@H](C)CN([C@H](C)CO)C(=O)c2cc(NC(=O)NC3CCCCC3)ccc2O1`: the relative growth is inactive: 1.02.

On to `CO[C@H]1CN(C)C(=O)c2cc(NS(=O)(=O)c3cn(C)cn3)ccc2OC[C@H](C)N(CCC(F)(F)F)C[C@H]1C`, for which the relative growth is inactive: 0.973.

Regarding `Cc1ccc(S(=O)(=O)Nc2ccc3c(c2)CC(=O)N([C@@H](C)CO)C[C@H](C)[C@@H](CN(C)Cc2ccc(-c4ccccc4)cc2)O3)cc1`, the relative growth is inactive: 0.977.

As for `C[C@@H]1CCCCO[C@H](CN(C)C(=O)CCCN(C)C)[C@H](C)CN([C@H](C)CO)C(=O)c2cc(NC(=O)Nc3cccc4ccccc34)ccc2O1`, the relative growth was inactive: 1.01.

As to `C[C@@H]1CN([C@H](C)CO)C(=O)Cc2cc(NS(=O)(=O)c3cccs3)ccc2O[C@@H]1CN(C)S(=O)(=O)c1cccs1`, the relative growth is inactive: 1.01.

With `COc1ccc2c3c(n(c2c1)C)[C@H](CO)N(C[C@]13CN(C1)C(=O)c1ccccn1)S(=O)(=O)c1ccc(cc1)C`, the relative growth was inactive: 1.03.

With `C[C@@H]1CN([C@@H](C)CO)C(=O)Cc2cc(NC(=O)NC3CCCCC3)ccc2O[C@H]1CN(C)S(C)(=O)=O`, the relative growth is inactive: 1.01.
